Some structures have more than one record in an assay (separate samples or runs), and their calls can disagree.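 Step 1: grow cells in 96-well plates. Step 2: add test compound at a single concentration. Step 3: incubate 48 h. Step 4: record percent growth.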 For part of its entries the source gives two or more results. Only these are listed. The calls were made as follows: active = growth percent below 10; inactive = the rest. An entry can have further records. The screen tested this drug many times, at the concentration stated with the values; one value stands for one run. Counts like (3×) count equal records among those shown.
Tested on: KM12 colon
Test: NCI-60 one-dose screen, 48 h (100 = growth as untreated, 0 = no growth, -100 = all killed)

What does the source list for `COc1cccc2c1C(=O)c1c(O)c3c(c(O)c1C2=O)C[C@@](O)(C(=O)CO)C[C@@H]3OC1CC(N)C(O)C(C)O1` (some centres undefined)?
growth (0.25 µM, runs of 2014): inactive: 60.5, 55.3 (2×), 46.7, 41.6, 56 (2×), 50.1 (2×), 56.3, 44.9, 57.6, 52.1, 59.5 (3×), 57, 64.2, 58, 50.3, 66.9 (2×), 58.1, 60.2, 59.1 (2×), 58.2, 54.3, 63.6, 62.9, 60.8, 58.9, 51.7, 53.3, 59.7, 59.8, 60.7 (3×), 64.5, 60.6, 64.4 (2×), 55.9, 63.3, 57.8, 54.9 (2×), 57.2, 54 (2×), 59, 55.2, 55.6, 53.6 (2×), 47.4, 51, 55.7 (3×), 56.7, 50.9, 48.6, 67.4, 52.8, 48.3, 48.5, 54.1 (2×), 52.4, 52.9, 69.7, 67.7, 62.2, 50.4, 52.3, 48.4, 50.8%; growth (0.25 µM, runs of 2015): inactive: 58.5 (2×), 51.9, 48, 55.9, 62.2, 60.4, 58, 55.5, 54.3, 58.6, 59.8, 62.4, 64, 65.2, 54.7, 44, 43.7, 49.7 (3×), 50.4, 46.2, 49, 53.4 (3×), 59.1 (2×), 60.9, 55.7 (2×), 57.4, 54.9, 45.1, 48.9 (3×), 50.3, 45.8, 49.2, 48.7, 55.2, 55, 54.8 (2×), 55.1, 61.6, 70.7, 44.6, 48.1 (2×), 53.5, 53.6, 52.2 (2×), 48.8, 51, 51.8 (2×), 49.8 (3×), 48.4, 46.1, 49.1, 53.3, 50.9, 57, 47.8, 49.6, 58.7, 53.2 (2×), 51.6, 53.8, 50.6, 48.5, 47.5, 57.5, 53%; growth (0.25 µM, runs of 2016): inactive: 50.4, 47.3, 56.1 (2×), 51.1, 57.4, 55.2 (2×), 48.4 (2×), 56.4 (2×), 55.8 (2×), 62.9, 67.2 (2×), 57.8, 56.7 (2×), 53.9, 54.8, 50.5, 45.2, 52.1, 43.4, 40.9, 54.6, 48.5 (2×), 43.7, 43.2, 61.4, 55, 56.2, 56, 50.8, 49.3, 44.8, 44.5, 45.3, 53.8, 51 (2×), 57.3, 62.2 (3×), 53.3, 62.3, 57.1 (2×), 58 (2×), 61.7, 53.5, 51.9, 42.6, 54, 52.4, 63.9, 61.6, 64.3, 67.8, 57.5, 55.9, 59.7, 55.1, 69.2, 62.4, 67.6, 64.4, 71, 63.5, 66.5, 67.5, 70.3, 65.9, 52.5, 62.7, 63.3, 65.7, 61.5%; growth (0.25 µM, runs of 2017): inactive: 66.5, 64.4, 57.2, 54.3, 51.9 (2×), 49.7 (2×), 47.1, 48.3, 55.5 (2×), 50.6, 50.5, 46.9, 45.8 (2×), 50.8, 49.6, 49.9, 46.4, 53.5, 60.5 (2×), 53.3, 52.5, 45.4, 48.1 (2×), 49.5 (2×), 58.2, 49.3, 61.2, 62.8 (2×), 50.1, 57.8, 58.5, 48, 53.9 (2×), 51.1, 56 (2×), 52.8, 55.1, 51.5, 56.2, 45.9, 53.2, 53.1, 55.6 (2×), 59.5, 56.5 (2×), 51.4, 56.8, 56.7, 54, 54.7, 52.2 (2×), 48.4, 47.8, 56.4, 58.8, 47.4, 48.8, 55.9, 56.1, 50.7, 52.4, 56.6 (2×), 48.9, 48.5, 50.3, 53.4, 57, 58.6, 55.4, 55, 54.1, 58.7, 56.9%; growth (0.25 µM, runs of 2018): inactive: 55.4, 57.8, 56.1 (3×), 59.7 (2×), 56.3 (2×), 54, 51.4, 53.8, 60.9 (2×), 60.7, 69.2, 66.6 (2×), 61.3, 57.7, 63.1, 64.3, 62, 60.8, 47.8, 64.4, 62.1, 57.6 (2×), 55.7, 56.2, 61.6, 52.1 (2×), 53.1, 62.2, 55 (2×), 59.5, 53.4, 61.7, 57.2, 49.8, 69.9, 58.5, 50.7, 64, 62.9, 66.9, 40.1, 47.4%; growth (0.25 µM, runs of 2019): inactive: 48.6, 39.1, 45.4, 36.3, 38.4, 47.6, 51, 47.1, 42.9, 44.1, 51.7, 45.9, 52.7, 57.3, 63.7, 51.9, 55.7, 49.1 (2×), 61.4, 56.5, 52.1 (2×), 46.2, 53.6, 53 (2×), 49.8, 37.9, 54.7, 46.1, 51.8, 45.7, 45.3, 47.8, 67.8, 57.4, 55.9, 55, 85.1, 56.9, 54.3, 60.7, 63.9 (2×), 61, 49, 52.5, 49.9%; growth (0.25 µM, runs of 2020): inactive: 38.7, 44.3, 58.1, 57, 67, 83.4, 60.3, 68.2, 57.3, 61.2, 58.5, 58.6, 58.7, 72.8, 64.4, 56.8, 59.6, 57.9 (2×), 60.8, 65.4, 63.5, 62.8, 64.5%; growth (0.25 µM, runs of 2021): inactive: 78.1, 82.3, 65.2, 70.8, 57.4 (2×), 58.8, 55.2 (2×), 74.7, 64.6, 62.4, 51.9, 56.9, 59, 67.6 (2×), 65.1, 66.1, 90.5, 68.4, 49.7, 49.5, 67.9, 57.8, 58.4, 65.7, 66.5, 57.9, 65.6, 60.9, 60.4, 61.4, 96.9, 53.6, 48.7 (2×), 55.3, 63.2, 63.6, 63.3, 67.8, 48.2 (2×), 50.6, 40.2, 57.5, 71.7, 62.1, 63.8, 65.8, 63.4, 62.7%; growth (0.25 µM, runs of 2022): inactive: 16.6, 18.8, 47.5, 52.2, 12.5, 55, 35, 48.9, 48, 56.6, 74.7, 61.9 (2×), 70.1, 53.6, 62.3, 50.3, 42.2, 86.2, 89, 91, 82.3, 87.6, 55.3, 58.5, 61.7%; growth (25 µM, runs of 1991): active: 0.911, 2.14, -17.3, -14.8, -19.5, -26.3, -5.25, -12.5, -1.84, 2.29, -20.8, -18.5, 8.16, -27.1, -18.4, -23.7, -24.1% and inactive: 10.8%; growth (25 µM, runs of 1992): active: 3.12, -0.318, 5.36, -0.888, -23.9, -7.37, -10.3, 0.297, -36, -52, 8.18 (2×), 7.02, 1.36, 3.41, -4.26, 5.31, -25.6, -19.2, -6.35, -27.6, -20.2, -45.2, 6.56, -24.9, 1.75, -7.3, -4.52, -45, -1.89, -28.5, -15 (2×), -19.8, -11, -2.91, -17.8, 0.402, 2.7 (2×), -21.9, -5.99, -14.7, 7.29, -37, 1.87, -25, -16.3, -7.38, -16.9, -29, -33.6, -7.14, -11.3, -10.2, -6.16, -23.3, -13.2 (2×), -18, -16.8, -0.82, -43.8, -30, -9.65, -35, -7.8, -13.9, -14.5, 1.12, 1.35, 1.21, -24.8, -23.2, -33, -23.8, -12.6, -34.3, -31.2, -10.5, -12.4 (2×), -40.6, -2.16, -22.6, -44.2, 5.04, -14, -31.3, -25.5, -50.9, -24.3, -19.5, 0.785, -35.1, -30.8, -3.85, -34.6, -14.1, 8.44, 4.66, -25.3, -21.5, -29.7, -32.2, -7.44, -22.8, -14.9% and inactive: 14.5%, 11.1%, 11.3%; growth (25 µM, runs of 1993): active: -1.96, -9.51, -24.2, -43.3, -3.15, -11.9, -26, -32.2, -7.11, -29.3, 2.28, -8.94, 0.895, -15.4, -25.7, -18.1, -18.4, 0.117, -0.784, -21.6, -30.3, -17.5, -36.1, -20.5, -11.4, -12.4, -14, 0.498, -33.5, -44.3, 0.73, -23.7, -64.7, -40.9, -39.1, -41.4, -21.9, -29.1 (2×), -13.2, -10.2, -32.3 (2×), -53.8, -10.5, -64.6, -35.5, -5.75, -62.3%; growth (25 µM, runs of 1994): active: -19.3 (2×), -1.54, -21.9, -37.1, -6.5, -25.9, -1.74, -39.5, -32.5, -12.5, -38.2, -23, 2.15, -21.2, 6.14, -28.1, -26.4, -16.5, -53.7, -14.6, -42.3, -36.3, 6.11, -12, -3.98, -4.19, -42.4, -17.2, -20.6, -19.6, -8.36, -9.42%; growth (25 µM, runs of 1995): active: -13.6, 4.39, -44.7, -8.65, -73.6, -24.3, -28.8, 1.9, -39.7, -21.8, -3.95, -20.7, -33.7, -14.6, -24.1, -20.6, -9.41, -35.9, -57.3, -60.6, -6.85, -38, -29, -46.1, -58.6, 1.58, -4.98, -29.9, -11.3, -19.3, 5.11, -51.7, 4.61, 0.811, -21.1, 2.97, -16.7, -22.8% and inactive: 16.2%; growth (25 µM, runs of 1996): active: -6.9, -14.8, -35.5, 5.72, -68.5, 4.79, -4.44, -35.2, -9.39, -19.8, -22.7, -4.14, -0.465, -2.94, 0.849, -21.7, 9.35, -5.03, -0.696, -24.4, -26.2, 0.151, 2.56, -72.9, 0.26, 1.73, -10.9, -20, -19.4, -57.2, -11.5, 1.41, -9.83, -10.2, -30.7, 1.75, -38.9, -5.83, -24.3, 0.956, -1.72, -27.7, -39.9, -6.6, 2.77, 3.48, -27.4, -18.7, -11.8, -39.2, -36.8, 3.86, 2.01, -60.8, -9.78% and inactive: 11.7%, 118%, 14.7%; growth (25 µM, runs of 1997): active: 5.35, 8.81, 0.545, -34.6, -9.38, -44 (2×), -46.3, -2.66, -26.2, -42.8, -16.4, 1.79, -73.9, -3.06, -26.7, -44.7, -44.4, -26.6, -18.2, -16.9, -10.5, -27.3, -7.6, -28.4, 7.91, 5.59, -22.9, -3.42, -29.7, 3.39, -32.5, -6.01, 2.64, -48.7, -38.4, -24.8, -29.6, -27.6, -10.9, -9.82, -8.33, -47.6, -31.3% and inactive: 98.5%; growth (25 µM, runs of 1998): active: 5.27, -18.1, -19.8, -5.45, 2.72, -45.1, -7.14, -25.6, -35, -58.4, -43.1, -14, -16.7, 0.0817, 1.02, -25.4, -14.1, 1.12, -6.53, -4.9, 0.558, -70.6, 7.03, 1.5, -13.9, -25.2, -10.1%; growth (25 µM, runs of 1999): active: -14.1, -4.6, 5.56, -40.5, -22.9, -70.4, 1.82, -73.1, 3, 0.354, -100, -46.5% and inactive: 28.4%; growth (25 µM, runs of 2000): active: 1.22, -100, 5.3, -39.1%

From PubChem BioAssay (NCI)
